PubChem BioAssay AID463173 (ICCB-Longwood Screening Facility, Harvard Medical School, 2010)
The whole screen tested about 52,000 compounds, of which about 4,300 (8.3%) were called active. Rule as the data show it: active = survival mostly below about 52% (no sharp cut-off); inactive = mostly above about 56%. Some of the results follow.

Test system: DeltatarO mutant
Experiment: S. aureus survival, RN4220 and DeltatarO strains – OD600, teichoic acid synthesis inhibitors, primary screen (AID 463173)
Conditions: S. aureus RN4220 wild type/DeltatarO growth, OD600, 18 h, hits give low values, screened at 18.75 µg/mL (by protocol)

| SMILES | survival |
| --- | --- |
| COc1ccc(-c2cc3nc(C)c(CCC(=O)N4CCN(c5cccc(Cl)c5)CC4)c(C)n3n2)c(OC)c1 | inactive: 62% |
| O=C(NCc1cccs1)c1ccc2c(c1)N(Cc1ccccc1Cl)C(=O)c1ccccc1S2 | inactive: 84% |
| COc1cccc(CNC(=O)C2CCN(c3ncccn3)CC2)c1 | inactive: 63% |
| O=C(CN1C=NS(=O)(=O)c2ccccc21)Nc1ccc(F)cc1 | inactive: 87% |
| COc1ccc(-c2cc(C(=O)OCC(=O)c3ccc(C)cc3)c3cccc(Cl)c3n2)cc1 | inactive: 65% |
| Cc1ccccc1-c1ncnn1-c1sc2c(c1C#N)CCCCC2 | inactive: 72% |
| CC(C)Cn1c(=O)c2ccccc2n2c(CCC(=O)NCc3ccccc3Cl)nnc12 | inactive: 90% |
| COc1ccc(CCC(=O)NC2CC(=O)N(c3ccc(C)cc3)C2)cc1 (stereo not drawn) | inactive: 95% |
| COc1ccc2oc(=O)cc(CN3CCN(c4ccc(F)cc4)CC3)c2c1 | inactive: 61% |
| CCCCNC(=O)C(CC)Sc1nnc(-c2cccc(F)c2)c(-c2cccc(F)c2)n1 (stereo not drawn) | inactive: 79% |
| Cc1cccc(C(=O)Nc2ccc(-c3nc4ccccc4s3)cc2Cl)c1 | inactive: 75% |
| Cc1cc(C)cc(N2CC(c3nc(-c4ccccc4C)no3)CC2=O)c1 (stereo not drawn) | inactive: 101% |
| CC(=O)Nc1c(C)nn(-c2ccccc2)c1N1CCC(C(=O)NCc2ccc(Cl)cc2)CC1 | inactive: 72% |
| Cc1nc2c(C(=O)NCCc3ccc(Cl)cc3)cnn2c(C)c1Cc1c(F)cccc1Cl | inactive: 75% |
| CCOC(=O)c1ccc(NC(=O)CN(c2ccc(C)cc2)S(=O)(=O)c2c(C)noc2C)cc1 | inactive: 101% |
| Cc1cccc(NC(=O)Cn2c(=O)n(-c3ccccc3Cl)c(=O)c3c(C)c(C(=O)N(C)C)sc32)c1 | inactive: 87% |
| CCCCN(CCCC)C(=O)CN(C)S(=O)(=O)c1ccc2c(c1)c(=O)n(C)c(=O)n2C | inactive: 132% |
| CC(Nc1ccc(-c2nc(-c3ccncc3)no2)cc1[N+](=O)[O-])c1ccccc1 (stereo not drawn) | active: 42% |
| O=C(NCc1ccccc1Br)c1ccc2nc(N3CCCCC3)sc2c1 | inactive: 94% |
| Cc1sc2c(c1C)c(=O)n(CCc1ccccc1)c(=O)n2Cc1cccc(F)c1 | active: 16% |
| COCCNC(=O)Cn1cc(/C=C(\C#N)C(N)=O)c2ccccc21 | inactive: 75% |
| O=C(Nc1cc(F)ccc1F)C1CCN(c2nc3ccccc3n3cccc23)CC1 | inactive: 66% |

| SMILES | survival |
| --- | --- |
| Cc1ccc(-c2c(CN3CCN(c4cccc(C)c4)C(C)C3)csc2C)cc1 (stereo not drawn) | inactive: 75% |
| Cc1ccc2onc(CC(=O)N3CCN(c4ccc(F)cc4)CC3)c2c1 | active: 41% |
| CC(C)CC(=O)N1c2nc(C(C)C)nn2C2(CCCCC2)[C@@H]2CCCC[C@@H]21 | inactive: 79% |
| COc1ccc(CCNC(=O)c2ccc(OC)cc2)cc1 | inactive: 86% |
| COc1ccc(C(=O)Nc2ccccc2C(=O)NC(C(=O)O)C(C)C)cc1 (stereo not drawn) | inactive: 84% |
| Cc1ccccc1S(=O)Cc1ccc(C(=O)N2CCN(c3cccc(C)c3C)CC2)o1 (stereo not drawn) | inactive: 61% |
| COc1cc2nc(C3CCC3)n(N)c(=O)c2cc1OC | inactive: 75% |
| COc1ccc(NC(=O)Cn2nnc(C(=O)NCCc3ccccc3)c2N)cc1 | inactive: 98% |
| CC(=O)c1cccc(NC(=O)C(C)n2c(=O)cc(C)c3c(C)nn(-c4ccccc4)c32)c1 (stereo not drawn) | inactive: 79% |
| COc1ccc(CCNC(=O)c2ccc(Nc3nc4ccccc4n4nnnc34)cc2)cc1OC | inactive: 71% |
| COc1ccccc1NC(=O)N(Cc1nnc2n1CCCCC2)c1ccc(F)cc1 | inactive: 91% |
| COc1ccc(OC)c(CNS(=O)(=O)c2ccc3c(c2)CCCN3C(C)=O)c1 | inactive: 73% |
| O=C(NCCc1ccccc1)c1ccc2c(c1)N(Cc1ccc(F)cc1)C(=O)c1ccccc1S2(=O)=O | inactive: 97% |
| O=C(CN(C(=O)C1CSC(=O)C1)c1ccccc1F)NC1CCCC1 (stereo not drawn) | inactive: 95% |
| Cc1cccc(N(CC(O)Cn2c3ccccc3c3ccccc32)S(=O)(=O)c2ccc(F)cc2)c1 (stereo not drawn) | inactive: 58% |
| CC(C)c1ccc(NC(=O)c2cc3sc(Cl)cc3n2C)cc1 | inactive: 142% |
| Cc1c(Cl)cccc1NC(=O)CSc1ncc2c(n1)-c1ccccc1N(C)S2(=O)=O | inactive: 102% |
| CN(CCCNC(=O)c1cc2c(Cl)nc3ccccc3c2s1)Cc1ccccc1 | inactive: 55% |
| CCN(CC)CCNC(=O)c1c(C)oc2ncnc(N3CCOCC3)c12 | inactive: 130% |
| Cc1cccc(C)c1OCC(=O)Nc1ncn[nH]1 | inactive: 62% |
| CCOc1ccc(CCNC(=O)c2cnc3sc(N(CC)CC)nn3c2=O)cc1OCC | inactive: 122% |
| Cc1cc(C)c(NC(=O)Cn2cc(S(=O)(=O)Cc3ccccc3F)c3ccccc32)c(C)c1 | inactive: 71% |

| SMILES | survival |
| --- | --- |
| COc1ccc(CCn2c(=O)c3cccnc3n(CC(=O)Nc3ccc(C)c(F)c3)c2=O)cc1OC | inactive: 70% |
| C=Cc1ccc(Cn2c(C(=O)O)c(CNC3CCCCC3)c3ccc(C)cc32)cc1 | inactive: 88% |
| CCC(C)C(NC(=O)c1cc(C)oc1C)C(=O)O (stereo not drawn) | inactive: 95% |
| COc1ccc(-c2nnc(SCC(=O)Nc3cccc(C(F)(F)F)c3)nc2-c2ccc(OC)cc2)cc1 | inactive: 87% |
| CC(C)NC(=O)Cn1cnc2c1c(=O)n(C)c(=O)n2C | inactive: 84% |
| Cc1cc(C)cc(NC(=O)N2CCC3(CC2)Oc2ccccc2C(=O)N3Cc2ccccc2F)c1 | inactive: 57% |
| NC(=O)c1ccc(-c2ccccc2)cc1C(N)=O | active: 66% |
| O=C(CCS(=O)(=O)c1cccc2nonc12)Nc1c(F)cccc1F | inactive: 76% |
| CC1CCc2c(sc3nc(-c4cc5cc(Br)ccc5oc4=O)[nH]c(=O)c23)C1 (stereo not drawn) | inactive: 74% |
| N#CC(C#N)=Cc1cn(Cc2ccccc2)c2ccccc12 | inactive: 96% |
| CCCn1c(-c2ccc(F)cc2)cnc1SCC(=O)N1CCCCC1C (stereo not drawn) | inactive: 74% |
| CCOc1ccc(NC(=O)c2c(NCc3cccnc3)sc3c2CCCC3)cc1 | inactive: 124% |
| CCN(CC)S(=O)(=O)c1ccc(S(=O)(=O)NCc2ccc3c(c2)OCO3)cc1 | inactive: 87% |
| COc1cccc(N2CCN(C(=O)c3cccc(-n4c(C)nc5cccnc54)c3)CC2)c1 | inactive: 80% |
| O=S(=O)(Nc1ccc(Br)cc1F)c1ccc2nc(-c3ccccc3)[nH]c2c1 | inactive: 72% |
| Cc1cc(N2CC34C=CC(O3)C(C(=O)O)C4C2=O)no1 (stereo not drawn) | inactive: 95% |
| O=S(=O)(NCC(c1cccs1)S(=O)(=O)c1ccccc1)c1ccc(F)cc1 (stereo not drawn) | active: 46% |
| CCOc1ccccc1CNC(=O)c1cc(-c2ccc(Cl)s2)nc2ccccc12 | inactive: 77% |
| CCOC(=O)c1ccc(NC(=O)C2CCN(S(=O)(=O)c3ccc4c(c3)CCCC(=O)N4)CC2)cc1 | inactive: 80% |
| CCc1ccc(NC(=O)Cn2c(=O)n(CCC(=O)N3CCc4ccccc4C3)c(=O)c3ccccc32)cc1 | inactive: 108% |
| Cc1ccccc1-c1nn2c(=O)cc(CN3CCN(C(=O)/C=C/c4ccccc4)CC3)nc2s1 | inactive: 116% |
| COc1cccc(Cn2c(CNS(=O)(=O)c3ccc(F)c(Cl)c3)nc3cccnc32)c1 | inactive: 134% |

| SMILES | survival |
| --- | --- |
| O=C(COc1ccccc1)NCCc1csc(-c2ccc(Cl)cc2)n1 | inactive: 94% |
| O=C(c1ccc2c(c1)OCCO2)N(Cc1cccnc1)c1nc2c(Cl)cccc2s1 | inactive: 117% |
| CCOc1ccc(OCC)c(NC(=O)C2CCN(S(=O)(=O)c3c(C)noc3/C=C/c3ccccc3F)CC2)c1 | inactive: 80% |
| CC(C)COc1ccc(C(=O)Nc2cc3nn(-c4ccccc4)nc3cc2Cl)cc1 | inactive: 74% |
| CCc1nn2c(=O)cc(COc3ccc(/C=C(\C#N)C(=O)Nc4ccc(F)cc4)cc3OC)nc2s1 | inactive: 106% |
| CC(C)C(=O)NCC(c1ccc2c(c1)OCO2)N1CCN(c2ccccc2F)CC1 (stereo not drawn) | inactive: 74% |
| O=C(NCc1ccccc1)c1ccco1 | inactive: 92% |
| COc1ccccc1C(=O)Nc1ccc2oc(-c3cccc(Cl)c3Cl)nc2c1 | inactive: 79% |
| CCOC(=O)c1ccc(N2C(=O)c3n[nH]c(C)c3C2c2cccc(Br)c2)cc1 (stereo not drawn) | active: 8% |
| COc1ccc(C(=O)c2cn(Cc3ccccc3F)c3cc4c(cc3c2=O)OCO4)cc1 | inactive: 82% |
| O=c1cc(-c2ccccc2)n2c(SCc3ccc(Cl)cc3)nnc2[nH]1 | inactive: 78% |
| Cc1ccc(CNC(=O)c2nc(SCc3ccccc3F)ncc2Cl)cc1 | inactive: 76% |
| CCOC(=O)c1ccccc1NC(=O)CSc1nc2ccncc2[nH]1 | inactive: 85% |
| O=C(NCc1ccco1)c1ccc(Cn2c(SCc3ccc(F)cc3)nc3cccnc32)cc1 | inactive: 92% |
| Cc1ccc2nc(N3CCC(C(=O)N4CCN(c5cccc(C)c5C)CC4)CC3)[nH]c2c1 | inactive: 87% |
| Cc1sc2c(c1C)c(=O)n(-c1ccc(Cl)cc1)c(=O)n2Cc1cc(=O)n2ccccc2n1 | inactive: 80% |
| CC1CCCN(C(=O)c2cc3c(=O)n(C)c4ccccc4c3s2)C1 (stereo not drawn) | inactive: 138% |
| COc1ccc(C2C(C(N)=O)=C(C)Nc3nc(SCc4ccccc4Cl)nn32)cc1OC (stereo not drawn) | inactive: 173% |
| CCOc1ccc(C(=O)NCc2nc3cccnc3n2Cc2ccc(F)cc2)cc1OCC | inactive: 54% |
| Cc1ccc(C2CCN(C(=O)c3cnn(-c4cccc(Cl)c4)c3C3CCN(C(=O)OC(C)(C)C)CC3)C2)cc1 (stereo not drawn) | inactive: 84% |
| O=C(COc1ccccc1)NCc1ccc2c(c1)CCN2C(=O)c1ccc(Cl)cc1 | inactive: 71% |
| COc1ccc(NC(=O)N(CCC(C)C)C(C)c2cccs2)c(OC)c1 (stereo not drawn) | inactive: 90% |
